Data on 57 compounds can be found in article PMC4336329 (PLoS ONE, 2015).

Hit rate of the full screen: of about 310,000 compounds, about 2,200 (0.71%) showed an effect of 50% or more. The effect is printed as a negative number. The list shows a part of the results.

In this assay the target is human ether-à-go-go-related gene (hERG) potassium channel (human, UniProt Q12809). Description: primary screen, population patch clamp on CHO cells stably expressing hERG.
Sequence of human ether-à-go-go-related gene (hERG) potassium channel (Q12809 whole entry, looked up): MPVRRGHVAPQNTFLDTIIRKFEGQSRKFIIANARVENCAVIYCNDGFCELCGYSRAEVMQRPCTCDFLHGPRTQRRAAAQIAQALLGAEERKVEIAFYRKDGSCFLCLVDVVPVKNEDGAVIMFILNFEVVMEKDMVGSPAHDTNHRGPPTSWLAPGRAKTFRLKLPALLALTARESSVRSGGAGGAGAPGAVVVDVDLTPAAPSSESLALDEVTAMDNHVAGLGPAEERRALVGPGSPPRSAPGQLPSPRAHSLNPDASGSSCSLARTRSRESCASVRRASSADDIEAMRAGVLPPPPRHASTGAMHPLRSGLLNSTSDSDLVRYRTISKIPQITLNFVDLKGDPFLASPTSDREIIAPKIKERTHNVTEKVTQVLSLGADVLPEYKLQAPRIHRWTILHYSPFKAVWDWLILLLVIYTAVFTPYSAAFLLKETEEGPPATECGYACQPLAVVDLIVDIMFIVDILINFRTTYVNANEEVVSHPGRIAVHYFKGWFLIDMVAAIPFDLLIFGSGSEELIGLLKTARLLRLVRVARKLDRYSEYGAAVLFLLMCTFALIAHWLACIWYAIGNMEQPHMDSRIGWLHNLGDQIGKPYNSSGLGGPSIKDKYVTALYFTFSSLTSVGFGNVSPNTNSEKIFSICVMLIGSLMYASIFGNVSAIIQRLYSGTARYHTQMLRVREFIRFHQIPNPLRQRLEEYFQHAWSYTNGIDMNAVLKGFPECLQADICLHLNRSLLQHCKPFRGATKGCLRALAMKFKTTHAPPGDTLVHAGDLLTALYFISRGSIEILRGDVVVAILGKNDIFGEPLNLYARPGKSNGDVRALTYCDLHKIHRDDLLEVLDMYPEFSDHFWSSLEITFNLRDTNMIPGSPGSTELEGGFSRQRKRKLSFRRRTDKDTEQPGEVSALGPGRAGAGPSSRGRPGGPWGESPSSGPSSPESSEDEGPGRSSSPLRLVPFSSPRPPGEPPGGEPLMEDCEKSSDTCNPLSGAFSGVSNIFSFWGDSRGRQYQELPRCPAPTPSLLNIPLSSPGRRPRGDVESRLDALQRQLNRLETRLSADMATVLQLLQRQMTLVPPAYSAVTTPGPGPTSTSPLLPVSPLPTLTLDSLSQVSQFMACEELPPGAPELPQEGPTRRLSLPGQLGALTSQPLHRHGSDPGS
As for `Cc1ccc(NC(=O)COc2cccc(Oc3ccccc3)c2)cc1S(=O)(=O)N1CCOCC1`, the “hERG current change (%, negative = inhibition) at 1uM” value turned out to be 5.7%.
As to `CCN(CC)C(=O)c1cccc(NC(=O)C2=COCCO2)c1`, the “hERG current change (%, negative = inhibition) at 1uM” value is 7.34%.
With `Cc1sc2ncnc(NCCN3CCOCC3)c2c1C.O=C(O)C(=O)O`, the “hERG current change (%, negative = inhibition) at 1uM” value is 9.44%.
Turning to `CCn1nnc(-c2ccccc2NC(=O)c2cc(OC)cc(OC)c2)n1`, the “hERG current change (%, negative = inhibition) at 1uM” value is reported as 13.5%.
As to `CCOC(=O)N1CCN(C(=O)CCc2c(C)nc3nc(C)nn3c2C)CC1`, the “hERG current change (%, negative = inhibition) at 1uM” value amounted to 0.258%.
In the case of `Cc1ccc(C(=O)/C=C/NNC(=O)c2ccccc2O)cc1` it was 4.9%.
For the compound `O=C(Nc1cccc(NC(=O)c2cccs2)c1)c1cccnc1`, the “hERG current change (%, negative = inhibition) at 1uM” value was 11.3%.
For the compound `COc1ccc(Cl)cc1NS(=O)(=O)c1cc(Br)cnc1N`, the “hERG current change (%, negative = inhibition) at 1uM” value was determined as 13.1%.
As for `Cc1nnc(NC(=O)Cc2ccc(OCc3c(C)noc3C)cc2)s1`, the “hERG current change (%, negative = inhibition) at 1uM” value stood at 10.7%.
For `Cc1cc(C)c(NC(=S)N(CCN2CCCCC2)Cc2ccco2)c(C)c1`, the “hERG current change (%, negative = inhibition) at 1uM” value is -10.1%.
On to `CC(C)(C)NC(=O)/C=N/O`, for which the “hERG current change (%, negative = inhibition) at 1uM” value stood at 14.9%.
Turning to `O=C1C(=O)N(Cc2ccncc2)C(c2ccccc2F)/C1=C(\O)c1ccc2c(c1)OCCO2` (stereo not drawn), the “hERG current change (%, negative = inhibition) at 1uM” value is reported as 18%.
For `CC(C)c1ccc2occ(-c3nn[nH]n3)c(=O)c2c1`, the “hERG current change (%, negative = inhibition) at 1uM” value is reported as 11.1%.
In the case of `COc1ccc(CCNC(=O)CC(=O)N/N=C/c2ccc(C(=O)O)cc2)cc1OC` it was 16%; in that of `CC12CN3CCN(CC(C3)C1(O)CN1CCOCC1)C2` (stereo not drawn), 2.88%.
For the compound `C/C=C/c1ccc(OCCCCNCc2ccco2)c(OC)c1.O=C(O)C(=O)O`, the “hERG current change (%, negative = inhibition) at 1uM” value is given as -62.6%.
Take `CC(=O)c1c(C)[nH]c(C(=O)OCC(=O)Nc2sc3c(c2C#N)CCC(C)C3)c1C` (stereo not drawn): the “hERG current change (%, negative = inhibition) at 1uM” value is listed as 11.9%.
In the case of `COc1ccccc1OCc1nnc(SCC(=O)NCc2ccco2)n1-c1ccccc1` it was 9.23%; in that of `COCCNC(=O)COc1ccc(C)cc1C`, 4.04%.
In the case of `CC(=O)Nc1cccc(Nc2nc(-c3cccs3)nc3ccccc23)c1`, the “hERG current change (%, negative = inhibition) at 1uM” value is given as 8.71%.
Consider `CC(Sc1nc2ccccc2[nH]1)C(=O)Nc1ccc2c(c1)OCCO2` (stereo not drawn), for which the “hERG current change (%, negative = inhibition) at 1uM” value stood at 13.9%.
For the compound `CCN(C1CCCCC1)S(=O)(=O)c1cc2c3c(c1)CCN3C(=O)CC2`, the “hERG current change (%, negative = inhibition) at 1uM” value is -0.668%.
With `CCCOc1ccccc1N/C(N)=N/c1nc(C)cc(C)n1`, the “hERG current change (%, negative = inhibition) at 1uM” value is -59.4%.
In the case of `O=C(COC(=O)CNS(=O)(=O)/C=C/c1ccccc1)NC1CCS(=O)(=O)C1` (stereo not drawn), the “hERG current change (%, negative = inhibition) at 1uM” value came out at 18.2%.
For the compound `Cc1ccc(Cl)cc1NC(=O)Cn1nc(-c2cccs2)ccc1=O`, the “hERG current change (%, negative = inhibition) at 1uM” value came to 13.5%.
On to `CCOC(=O)c1cc2c(=O)c3ccccc3oc2nc1C`, for which the “hERG current change (%, negative = inhibition) at 1uM” value is given as 8.42%.
`CN(C)S(=O)(=O)c1cccc(-c2csc(N/N=C/c3ccco3)n2)c1`: the “hERG current change (%, negative = inhibition) at 1uM” value was found to be 11.8%.
Regarding `COc1cccc(C(=O)C(C#N)=C(SC)SC)c1`, the “hERG current change (%, negative = inhibition) at 1uM” value worked out at 9.51%.
For the compound `Cc1cccc(NC(=S)N(C)Cc2cn(C)c3ccccc23)c1`, the “hERG current change (%, negative = inhibition) at 1uM” value is listed as 6.6%.
In the case of `O=C(O/N=C1\CCCc2ccccc21)c1ccc(F)cc1` it was 1.44%; in that of `Cc1cc(C(=O)CCl)c(C)n1-c1cccc([N+](=O)[O-])c1`, 11%.
With `O=C(NC(=S)Nc1ccc(S(=O)(=O)N2CCCCCC2)cc1)c1cccs1`, the “hERG current change (%, negative = inhibition) at 1uM” value turned out to be 0.562%.
In the case of `CC1CCC(NC(=O)Cn2ncc3ccccc32)CC1` (stereo not drawn) it was 2.18%; in that of `C=CCn1c(SCc2csc(C)n2)nc2sc3c(c2c1=O)CCCC3`, 10.2%.
In the case of `CC(=O)c1ccc(N2CCN(C(=O)C(=O)c3c(C)[nH]c4ccccc34)CC2)cc1`, the “hERG current change (%, negative = inhibition) at 1uM” value is -2.31%.
With `COc1cccc(-c2nc3n(n2)C(c2ccc4c(c2)OCO4)C(C(N)=O)=C(C)N3)c1` (stereo not drawn), the “hERG current change (%, negative = inhibition) at 1uM” value worked out at 6.43%.
To `COc1ccc(Cn2nnnc2C(c2cc3cccc(C)c3[nH]c2=O)N2CCOCC2)cc1` (stereo not drawn) belongs -14.6%.
For `C=CCn1c(COc2cccc3cccnc23)nnc1SCC(=O)OC`, the “hERG current change (%, negative = inhibition) at 1uM” value was found to be 12.8%.
In the case of `C[C@H](NC(=O)c1nc[nH]c1C(=O)OCc1ccccc1)c1ccccc1` it was 6.37%.
As for `CCN1CCN(C(c2ccc(F)cc2)c2nnnn2Cc2ccc3c(c2)OCO3)CC1.Cl` (stereo not drawn), the “hERG current change (%, negative = inhibition) at 1uM” value was -19.6%.
Turning to `O=C(CCS(=O)CCC(=O)NCc1ccccc1)NCc1ccccc1`, the “hERG current change (%, negative = inhibition) at 1uM” value was 17%.
In the case of `COc1ccc(NC(=O)NC2(C(=O)N3CCCC(C)C3)CCCCC2)cc1` (stereo not drawn) it was 14.1%.
Turning to `CC(=O)c1cccc(NC(=O)C(C)OC(=O)C2CCC2)c1` (stereo not drawn), the “hERG current change (%, negative = inhibition) at 1uM” value came to 7.5%.
With `CC(=O)c1cccc(CN2CCC(C(=O)Nc3ccc(-c4cccc(C)c4)cc3)CC2)c1`, the “hERG current change (%, negative = inhibition) at 1uM” value is given as 6.83%.
Consider `CCCCn1c(N)c(N(CC(C)C)C(=O)C2CC(=O)N(CCc3ccccc3)C2)c(=O)[nH]c1=O` (stereo not drawn), for which the “hERG current change (%, negative = inhibition) at 1uM” value stood at 9.06%.
In the case of `COc1ccc(-c2cc(=O)oc3cc(OCC(=O)NCC(O)c4ccccc4)ccc23)cc1` (stereo not drawn) it was 11.1%; in that of `CCC(=NCC1CCCO1)c1c(O)n(Cc2ccccc2)c(=O)[nH]c1=O` (stereo not drawn), -17.2%.
In the case of `O=C(NCc1cccnc1)c1ccc(COc2ccc(Cl)cc2)cc1` it was -31.1%; in that of `COC(=O)CN1C(=O)C(C)=C(c2ccc(C)cc2)S1(=O)=O`, -4.88%; in that of `CCOC(=O)c1[nH]c2ccc(F)cc2c1NC(=O)c1ccccc1C(=O)O`, 15%.
For `COc1cccc(/C=C2/SC(=O)N(CC(=O)N3CCc4ccccc4C3)C2=O)c1OCC(=O)O`, the “hERG current change (%, negative = inhibition) at 1uM” value was 9.5%.
`N#Cc1c(N)nc2c(c1N)CC(=O)N2c1ccc(Cl)cc1`: the “hERG current change (%, negative = inhibition) at 1uM” value was found to be 10.9%.
On to `O=C(Cc1ccc(Cl)cc1)NNC(=O)c1cnccn1`, for which the “hERG current change (%, negative = inhibition) at 1uM” value stood at 14.3%.
As to `COc1ccc(Br)cc1C(=O)Nc1ccc(C(=O)NCC(C)C)cc1`, the “hERG current change (%, negative = inhibition) at 1uM” value is given as 1.16%.
On to `CCc1nnc(NC(=O)C2CCCN2S(=O)(=O)c2ccc(C)cc2)s1` (stereo not drawn), for which the “hERG current change (%, negative = inhibition) at 1uM” value came to 11.8%.
With `c1ccc(-c2nn[nH]n2)cc1`, the “hERG current change (%, negative = inhibition) at 1uM” value is given as 9.31%.
As to `CC1CN=C(N(C(=O)Nc2ccccc2)c2ccc(F)cc2)S1` (stereo not drawn), the “hERG current change (%, negative = inhibition) at 1uM” value came out at 0.926%.
